Results: the supplement of paper PMC3334620
In all, about 33,000 sequences were measured (“E-score (-0.5 to 0.5)”: median about -0.054, highest 2% from about 0.35 on). Some of the results follow.

target: T1, Stb5 (UniProt P38699); experiment: PBM E-score (8-mer binding enrichment) (E-score (-0.5 to 0.5)); higher = stronger / more preferred TF binding; most listed sequences are background and not binding sites; conditions: protein concentration: 200 nM; construct: GST-full length
T1 sequence: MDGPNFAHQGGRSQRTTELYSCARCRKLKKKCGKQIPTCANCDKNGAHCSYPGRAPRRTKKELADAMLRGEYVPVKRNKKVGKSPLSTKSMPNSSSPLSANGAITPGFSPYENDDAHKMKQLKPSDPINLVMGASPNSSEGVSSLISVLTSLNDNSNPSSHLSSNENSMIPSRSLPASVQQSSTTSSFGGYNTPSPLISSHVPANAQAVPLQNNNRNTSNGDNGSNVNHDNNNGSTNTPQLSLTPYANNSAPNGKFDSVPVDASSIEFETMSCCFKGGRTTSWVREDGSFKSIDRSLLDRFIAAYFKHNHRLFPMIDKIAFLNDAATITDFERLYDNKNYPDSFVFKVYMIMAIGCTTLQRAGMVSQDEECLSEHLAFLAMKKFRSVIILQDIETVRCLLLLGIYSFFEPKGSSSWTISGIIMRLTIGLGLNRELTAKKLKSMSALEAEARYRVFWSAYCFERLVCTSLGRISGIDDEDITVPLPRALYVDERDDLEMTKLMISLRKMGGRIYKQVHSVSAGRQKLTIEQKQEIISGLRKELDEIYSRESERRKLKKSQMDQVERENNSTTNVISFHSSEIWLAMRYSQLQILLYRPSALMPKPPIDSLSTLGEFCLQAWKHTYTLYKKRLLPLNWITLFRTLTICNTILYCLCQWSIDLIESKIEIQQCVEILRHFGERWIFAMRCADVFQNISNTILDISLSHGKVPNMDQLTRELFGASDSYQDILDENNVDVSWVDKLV
Method in brief: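 Masliner-normalised scans of fluorescent anti-GST signal were the basis for scoring. That signal came from GST-tagged yeast transcription factors applied at about 100-200 nM to double-stranded universal all-10-mer Agilent arrays on fresh or once-stripped slides. Each ungapped eight-base word, pooled with its reverse complement, received an E-score from the Universal PBM Analysis Suite.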

Row | Sequence | PBM E-score
1 | CCATAGCC | -0.0152
2 | CCGGCCGA | 0.272
3 | TAGCGTCA | 0.0505
4 | ATCGGCAT | 0.363
5 | CACTCTTC | -0.1
6 | GTTAATGA | -0.209
7 | CACGCAGG | -0.132
8 | AAGACATC | -0.0816
9 | CGACAGCC | -0.0167
10 | ATATAGAT | -0.122
11 | GTCGTGTA | -0.0816
12 | AACCCACG | -0.0903
13 | CACCCCAG | -0.171
14 | CCGTCAAC | 0.144
15 | AATCCACA | -0.0189
16 | AGGTTGGG | -0.208
17 | TCACCCCA | -0.0925
18 | AGTATGAC | -0.0163
19 | AATATCCA | -0.00669
20 | GAGTGGAC | -0.0648
21 | GCGATGAC | -0.0995
22 | CCGTGATA | 0.21
23 | AAAATGTG | -0.067
24 | AAGCTCGG | 0.134
25 | AGAGATTG | -0.0979

Row | Sequence | PBM E-score
26 | AGAGCTGA | -0.259
27 | ATTGTTCC | 0.146
28 | AGGCGGAG | 0.356
29 | GCGCAGCC | -0.0753
30 | AGTCGGCA | 0.325
31 | GACTTGAC | 0.013
32 | AATGAAGC | -0.0784
33 | CCCTGTCC | -0.0839
34 | CCGTCTTA | 0.197
35 | AATCGCTG | 0.0298
36 | CGAATGTA | 0.0849
37 | AATCCCCC | 0.127
38 | GCGGCAAA | 0.254
39 | ATGTAATC | -0.0748
40 | CGCCATTA | 0.208
41 | CTGCAAAC | -0.23
42 | CAGCAAGA | 0.00075
43 | CTCCTAAA | -0.143
44 | CAATATTA | 0.139
45 | TAGGAAAA | -0.0933
46 | ACCGCTTA | 0.197
47 | GGACGCCA | -0.0391
48 | CATAGGGG | -0.164
49 | GCCGACCA | 0.293
50 | AGACTACT | -0.313

Row | Sequence | PBM E-score
51 | ACAAATGA | -0.347
52 | ATCCTAAC | -0.0295
53 | CGAGCCGC | 0.128
54 | AGGTAAGG | -0.224
55 | TGAGCTAA | -0.223
56 | AGAGACAA | -0.246
57 | GATAGGCA | -0.305
58 | CAAACTCC | 0.253
59 | GGAGCTAA | 0.334
60 | AACATGGT | -0.217
61 | ATGGTCAG | -0.183
62 | TATGAAAA | 0.0172
63 | GAACTGGA | -0.0425
64 | CGCGTGAA | -0.0581
65 | AGGATTAA | 0.0794
66 | AACAAGCG | 0.191
67 | TACCGAAA | 0.187
68 | CCTTACAC | 0.0417
69 | TACACAGA | -0.0662
70 | AAGAAGCT | -0.206
71 | ATGCTTAG | -0.213
72 | GCGTTGCC | -0.0138
73 | CTTAGCGA | -0.135
74 | AGCGCCTG | 0.121
75 | GACCATTA | -0.0262

Row | Sequence | PBM E-score
76 | ACTTACAC | -0.00546
77 | CAATGTCG | -0.0242
78 | AATGAGTC | -0.0615
79 | GTCACTGA | -0.09
80 | CATCTTCG | 0.0343
81 | ACATGCCT | -0.191
82 | TATTGTCA | -0.137
83 | ATTCTGAG | -0.0348
84 | ATTTCACA | -0.157
85 | ACCGCCGA | 0.405
86 | CTTACAAA | 0.0141
87 | CGCGATCC | 0.0632
88 | GACAATGC | -0.0381
89 | GAGATCCA | -0.176
90 | TAGTTATA | 0.112
91 | GTCAATTA | 0.0558
92 | ACGGTGCG | 0.281
93 | ACACGAAA | 0.115
94 | AGAGATTC | -0.0575
95 | GGCAACAA | -0.109
96 | AGATCTGG | -0.154
97 | AATTCCGA | 0.265
98 | GGTGAGTA | -0.0384
99 | AGCAGCGC | 0.106
100 | CAAAACCC | 0.2

Row | Sequence | PBM E-score
101 | AGTAGCAA | -0.109
102 | CCAGCGTC | 0.0515
103 | CACTCATC | -0.0493
104 | CGCGCCAC | -0.00899
105 | AGACCCAA | -0.25
106 | GTGGAAAA | -0.114
107 | GTGCGAAA | -0.0753
108 | AGACCACG | -0.196
109 | AAACAAGA | -0.232
110 | AGGACTTC | -0.196
111 | CTCAGCTC | -0.141
112 | CCTCCCTA | -0.227
113 | GATGGAGA | 0.0972
114 | GAGGAAGC | -0.152
115 | ATGACAGC | -0.138
116 | ACGGGGCC | 0.221
117 | CTCGATCC | -0.0217
118 | CTTTAAGC | 0.0877
119 | CTCTACCC | -0.316
120 | AAGATCTC | -0.157
121 | GGGAACAC | 0.0338
122 | AATACTAG | -0.111
123 | CGACCAAC | -0.0601
124 | AGACACCG | 0.436
125 | ACCCATGC | -0.221

Row | Sequence | PBM E-score
126 | TCATCAGA | -0.111
127 | GGTGGTAC | 0.261
128 | AACCAACG | -0.0974
129 | TATTTCGA | 0.17
130 | AACGGAGC | 0.242
131 | CCCCGTAC | 0.243
132 | GGCTGCCA | 0.026
133 | CACACGTC | -0.101
134 | AAGTCACT | -0.157
135 | CAGATGTC | -0.00728
136 | ACTCCCGG | 0.271
137 | AAAATTGC | 0.149
138 | ATGGTTCC | 0.183
139 | CAATGGTG | -0.187
140 | CAACTTGC | -0.232
141 | CGACCGAG | 0.105
142 | GTGGGAGA | -0.168
143 | CATCGAGA | -0.206
144 | AAAATGTC | 0.0618
145 | CGCGCACA | 0.106
146 | AGCTCTGG | -0.108
147 | ACTCCGAC | 0.425
148 | ATGCTAAC | -0.0894
149 | AGACCGCT | 0.345
150 | CCACCTAA | -0.0966

Row | Sequence | PBM E-score
151 | CTCAGAAG | -0.211
152 | CATAACAA | -0.076
153 | ACGGGTGG | -0.0144
154 | TGATCAAA | -0.0246
155 | ATAGTAAA | -0.159
156 | CAACCCGG | 0.0495
157 | GAAATAGC | 0.107
158 | CCAGTCAC | 0.153
159 | CGTTACCC | -0.0513
160 | CTGCGGCA | 0.118
161 | AACCGCCA | 0.167
162 | GACGTACA | -0.0556
163 | GTTTCAGA | -0.0672
164 | AGCGAGCC | -0.015
165 | AGAGAGTC | -0.232
166 | ACCCAAGA | -0.193
167 | CCGTCGGC | 0.377
168 | ACCATTGG | -0.0637
169 | ACTCCCTC | -0.143
170 | ACTGACGG | 0.259
171 | GACGCATA | 0.131
172 | ACACACTC | -0.174
173 | AACGCCTA | -0.103
174 | CATGAATA | -0.189
175 | AAGTGTGG | -0.0211

Row | Sequence | PBM E-score
176 | ATCACACA | -0.247
177 | CATCGACA | -0.116
178 | ACCCCGAG | 0.351
179 | CGGGAACG | 0.251
180 | AGTCCTCG | -0.314
181 | AGGCCTGC | -0.089
182 | GGAGCGGA | 0.278
183 | GTGGGCAA | -0.0612
184 | AAGTCGCC | 0.0466
185 | CAGGCAAA | -0.145
186 | CCTGGACC | -0.283
187 | ACCCCACG | 0.0991
188 | ATCGGAAC | 0.217
189 | GCGCTAAC | 0.111
190 | CCAGAGCG | -0.033
191 | ACGTCTAC | -0.198
192 | AAATCCCC | 0.336
193 | AGCCTGAA | -0.0302
194 | ATGCTCGC | -0.221
195 | CTAACTAA | -0.127
196 | AACTTGGC | -0.103
197 | CCTGTATA | -0.0845
198 | ACATTAAA | -0.122
199 | CCTATTTC | 0.192
200 | CGTACTCC | 0.0129

Row | Sequence | PBM E-score
201 | GAGACGTA | -0.227
202 | TCTGAGCA | -0.254
203 | ACCCTATC | -0.0371
204 | ATTTGGAG | -0.11
205 | CGACAGGA | 0.175
206 | AAGCTTAG | -0.11
207 | ACCGATCG | 0.32
208 | AGTCATAT | -0.00205
209 | GTCAGCCA | -0.35
210 | ACACTACC | -0.0598
211 | AGTGCTAA | -0.043
212 | TACCTCCA | -0.0788
213 | GCGCGGTA | 0.29
214 | AGGGATTG | -0.163
215 | CAACAAGC | -0.0677
216 | ATATAGGC | 0.0115
217 | ACCGAAAA | 0.0944
218 | GGGGCTAA | 0.276
219 | GGGTGCTA | 0.0799
